From article PMC5566378, “The human IL-17A/F heterodimer: a two-faced cytokine with unique receptor recognition properties” (Scientific Reports, 2017)

Key:
[1] = target: T1, human IL-17RC extracellular domain (human, UniProt Q8NAC3-2 21-467); assay: SPR; Biacore 8K; IL-17RC ECD amine-coupled on a CM4 chip (about 500 RU); cytokines as analytes in PBS pH 7.4, 3 mM EDTA, 0.05% Tween20; 20 °C, 30 µl/min; 1:1 Langmuir model or steady-state analysis; conditions: both partners purified
T1 construct: human IL-17RC, full-length extracellular domain, residues 21-467 of UniProt Q8NAC3-2, cloned behind the CD33 signal peptide; numbers count on: isoform Q8NAC3-2; also called IL-17RC ECD; IL-17RC receptor
T1 sequence (looked up): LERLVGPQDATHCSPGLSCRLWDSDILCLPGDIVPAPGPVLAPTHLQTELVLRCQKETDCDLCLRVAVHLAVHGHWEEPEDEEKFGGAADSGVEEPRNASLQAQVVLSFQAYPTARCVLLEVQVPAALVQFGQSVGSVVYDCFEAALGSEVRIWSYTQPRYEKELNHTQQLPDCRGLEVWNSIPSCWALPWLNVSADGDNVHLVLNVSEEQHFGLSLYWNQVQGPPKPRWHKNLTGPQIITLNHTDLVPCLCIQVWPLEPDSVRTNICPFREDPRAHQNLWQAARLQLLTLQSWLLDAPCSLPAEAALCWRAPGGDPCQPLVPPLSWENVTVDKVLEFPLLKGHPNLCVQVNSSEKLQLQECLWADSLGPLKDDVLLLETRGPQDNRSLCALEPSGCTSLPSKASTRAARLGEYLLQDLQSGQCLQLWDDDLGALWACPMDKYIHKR

[2] = target: T2, human IL-17RA extracellular domain (human, UniProt Q96F46 33-320, biotin on the Avi-tag (E. coli BirA), for the SPR measurements only); assay: SPR; Biacore 8K; biotinylated IL-17RA ECD immobilised on a streptavidin chip (about 500 RU); cytokines as analytes in PBS pH 7.4, 3 mM EDTA, 0.05% Tween20; 20 °C, 30 µl/min; 1:1 Langmuir model or steady-state analysis; conditions: both partners purified
T2 construct: human IL-17RA, full-length extracellular domain, residues 33-320 of UniProt Q96F46, cloned behind the CD33 signal peptide; The same construct was used unbiotinylated for the complex and its crystals (treated with PNGaseF and Endoglycosidase H) and biotinylated for SPR; also called IL-17RA ECD; IL-17RA receptor; source: GnTI-deficient HEK293S, transient expression, secreted, purified (anti-APP …)

B1: human IL-17A homodimer, Arg69 to alanine mutant (ligand)
chain: not shown
notes: signal peptide in the construct; human IL-17A, […] of […] with the native signal peptide, R69A; also called IL-17A R69A; point mutant of the IL-17A homodimer; source: HEK293S, transient expression, secreted, purified
For B1, the “fold reduction in binding affinity against wild-type IL-17A” value [1] was ≥ 200 fold and the “fold drop in binding affinity against wild-type IL-17A” value [2] was ~400 fold.
